Source: PubChem BioAssay AID1159614 (National Center for Advancing Translational Sciences (NCATS), 2016)
The whole screen tested about 45,000 compounds, of which about 65 (0.1%) were called active. Calls follow the shape of the dose curve; as a rule, active = well fitted activation curve with a large enough effect; inconclusive = small, poorly fitted or top-dose-only effect; inactive = no such curve, though single readings can be large or run the other way. The list shows a part of the results.

Target: Galactocerebrosidase (Homo sapiens) (UniProt P54803)
UniProt P54803, sequence (P54803 whole entry, looked up): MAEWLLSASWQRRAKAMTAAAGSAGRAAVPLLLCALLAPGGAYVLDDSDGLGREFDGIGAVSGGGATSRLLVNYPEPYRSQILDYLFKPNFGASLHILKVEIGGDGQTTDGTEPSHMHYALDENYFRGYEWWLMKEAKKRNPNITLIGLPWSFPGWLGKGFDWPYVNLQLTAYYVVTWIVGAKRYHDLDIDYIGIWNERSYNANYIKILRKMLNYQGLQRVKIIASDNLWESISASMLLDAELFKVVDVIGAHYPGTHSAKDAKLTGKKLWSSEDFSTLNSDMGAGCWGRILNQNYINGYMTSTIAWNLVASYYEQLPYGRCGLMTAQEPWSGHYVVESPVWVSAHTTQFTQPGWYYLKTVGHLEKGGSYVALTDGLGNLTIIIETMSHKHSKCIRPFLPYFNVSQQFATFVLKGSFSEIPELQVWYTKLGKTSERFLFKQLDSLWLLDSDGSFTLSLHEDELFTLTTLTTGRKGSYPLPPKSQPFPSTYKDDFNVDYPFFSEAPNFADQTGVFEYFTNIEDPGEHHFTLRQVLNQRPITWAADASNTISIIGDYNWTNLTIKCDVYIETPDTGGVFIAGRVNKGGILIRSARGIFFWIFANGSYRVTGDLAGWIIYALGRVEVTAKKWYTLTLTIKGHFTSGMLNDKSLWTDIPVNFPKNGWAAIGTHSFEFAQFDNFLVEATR
Test: A Novel Cell-Based Assay to Identify Small Molecules for B -Galactocerebrosidase; also: 0% is about no effect; nearly all actives have a fitted effect of over 65% in size
Conditions: 145M-Twi-hGALC-G270D cells (Twitcher mouse brain line with human GALC G270D), HMU-beta-Gal fluorescence, 48 h; series mostly up to 57.5 µM; activation: at the top concentration
Summary of the method: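 Live 145M-Twi cells (Twitcher mouse brain-derived, GALC-null) stably expressing human GALC-G270D, with a wild-type GALC line, were compound-treated. Residual GALC activity was then read as fluorescence from 0.1 mM final HMU-β-gal at pH 5.2; higher signal means activation.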

activation, inactive:
NS(=O)(=O)c1ccc(CCNC(=O)CCCCCn2c(=O)[nH]c3ccccc3c2=O)cc1 -10.4%, COc1ccc(NC(=O)c2cn(CC(C)C)c(=O)c3cc(OC)c(OC)cc23)cc1Cl -0.607%, CCc1cccc(NC(=O)CSc2ncc3c(n2)-c2ccc(Cl)cc2N(Cc2ccccc2)S3(=O)=O)c1 0.009%, COc1cccc(C(=O)NC2(C(F)(F)F)C(=O)Nc3c2c(=O)[nH]c(=O)n3-c2ccc(C)cc2)c1 (stereo not given) -11%, CCc1c(C)sc2c1CCN(C(=O)Nc1cc(OC)c(OC)c(OC)c1)C2c1ccccc1 (stereo not given) -12.5%, Oc1c(C(c2ccccc2)N2CCC3(CC2)OCCO3)sc2nc(-c3ccco3)nn12 (stereo not given) -14.9%, Cc1nc(N2CCOCC2)c2c(C(=O)NCc3cccc(Cl)c3)c(C)oc2n1 -10.9%, CCOC(=O)Cc1ccc(NC(=O)Nc2cccc(OCc3cc(=O)n4cc(C)ccc4n3)c2)cc1 -12.6%, COc1ccc(-c2nc3c(c(SCC(=O)Nc4ccc(C(=O)O)cc4)n2)Cc2ccccc2O3)cc1 1.53%, O=C(CCCCCn1c(=O)c2sccc2n(CC(=O)Nc2cccc(Cl)c2)c1=O)NCc1ccc2c(c1)OCO2 -20.2%, Cc1ccc2c(=O)cc(C(=O)Nc3ccc(S(=O)(=O)N(C)Cc4ccccc4)cc3)oc2c1C -7.52%, COc1cccc(C(=O)NCc2cn3ccccc3n2)c1 -14.2%, O=C(CSc1nnc(-c2ccccc2)c(-c2ccccc2)n1)NC1CCCC1 -9.82%, CCOc1ccc(C(=O)c2cn(CC(=O)Nc3ccc(F)cc3)c3cc4c(cc3c2=O)OCCO4)cc1 -10.2%, CCOc1ccc(OCC)c(NS(=O)(=O)c2c(C(=O)N3CCCCCC3)c(C)n(C)c2C)c1 -13.8%, O=C(NCCCO)C(=O)NCC(c1ccc2c(c1)OCO2)N1CCOCC1 (stereo not given) -7.67%, CN(N=O)C(=O)N[C@@H]1[C@@H](O)[C@H](O)[C@@H](CO)O[C@@H]1O -18.2%, CCC(C)(C)NC(=O)C1CCN(S(=O)(=O)c2c(C)noc2/C=C/c2ccc(C)cc2)CC1 -21.3%, COc1ccc(NC(=O)C2=CC(c3ccc4c(c3)OCO4)=NS(=O)(=O)N2C)cc1 -23.7%, CCc1ccc(NC(=O)Cn2c(=O)n(CCCCC(=O)NCCc3ccccc3)c(=O)c3ccccc32)cc1 -22.7%, Fc1ccc(-n2cc(-c3ccccc3)c3c(NCCc4ccccc4)ncnc32)cc1 -7.94%, COc1ccc(C)cc1NC(=O)C1COc2ccccc2C1 (stereo not given) -20.9%, CCOC(=O)C1CCCN(S(=O)(=O)c2cc3c4c(c2)CC(=O)N4CCC3)C1 (stereo not given) -4.98%, COc1ccc(C2c3c(oc4ccc(C)cc4c3=O)C(=O)N2CCCN2CCOCC2)cc1OC (stereo not given) -13.3%, CCCCCCOC(=O)NC(=N)c1ccc(NCc2nc3cc(C(=O)N(CCC(=O)OCC)c4ccccn4)ccc3n2C)cc1 -11.8%, COc1ccc(S(=O)(=O)NCC(c2ccc(N(C)C)cc2)N2CCCC2)cc1 (stereo not given) -14.2%, CCOC(=O)c1c(NC(=O)COc2c(C)cc(Cl)cc2Cl)sc2c1CCCC2 -5.23%, COc1ccc(-c2noc(CC(=O)Nc3ccc(Br)cc3C)n2)cc1 -8.18%, COc1cccc(CNC(=O)c2oc3c(c2C)-c2nn(Cc4cccc(Cl)c4)cc2CC3)c1 -28.8%, Cc1ccc(-n2c(=O)c3c4c(sc3n(Cc3ccccc3C)c2=O)CCC4)cc1C -15%, CC(=O)NC(Cc1ccccc1)C(=O)O (stereo not given) -8.3%, Cc1cc(C)c(/C=C/c2onc(C)c2S(=O)(=O)N2CCC(C(=O)N(C)Cc3ccccc3)CC2)c(C)c1 -14.4%, Cc1ccc(NC(=O)Nc2nnc(N(C)C3CCCCC3)s2)c(Cl)c1 -4.8%, Clc1cccc(-n2cc(-c3ccccc3)c3c(N4CCCCC4)ncnc32)c1 -8.58%, COc1ccc(O)cc1 -11.7%, O=C(Nc1ccc2c(c1)OCO2)c1cc(-c2ccc(Br)cc2)on1 -21.5%, Cc1ccccc1C(=O)Nc1nc2nc(-c3ccccc3)cc(=O)n2[nH]1 -6.36%, NCCc1cnc[nH]1 -7.37%, CCN1C(C(=O)c2ccccc2)=C(OC(=O)c2ccc(OC)cc2)c2ccccc2S1(=O)=O -9.59%, Cn1c(=O)c2c(-c3ccc(Br)cc3)n(CCc3ccccc3)cc2n(C)c1=O -28.2%, CCc1cccc(C)c1NC(=O)Cn1cc2c(n1)CCCC2 -14.3%, CCN(Cc1ccccc1)C(=O)CCc1c(C)nc2c(c(C)nn2-c2ccc(C)c(C)c2)c1C -2.49%, Cc1ccc(NC(=O)c2oc3ccc(S(=O)(=O)N4CCCCC4)cc3c2C)cc1Cl -14.2%, CCOc1ccc(Nc2nc3c(S(=O)(=O)c4cccc(Cl)c4)nnn3c3ccsc23)cc1 -14.5%, CC1=C(C(=O)Nc2ccccc2)C(c2ccc(C(=O)O)cc2)n2ncnc2N1 (stereo not given) -20.5%, CCc1ccc(OCC(=O)N(Cc2ccco2)Cc2ccccc2Cl)cc1 -12.5%, COc1ccccc1N1CCN(C(=O)c2cn(C)c3ccc(S(=O)(=O)N(C)C4CCCCC4)cc3c2=O)CC1 -14.7%, CCOc1ccc(NC(=O)c2cnn(-c3ccc(C)c(C)c3)c2C2CCN(C(=O)OC(C)(C)C)CC2)cc1 -17.5%, Cc1ccc(C(=O)NCC(c2ccc3c(c2)OCO3)N2CCN(C)CC2)cc1C (stereo not given) -9.32%, CCc1noc(-c2ccc(NCc3ccccc3)c([N+](=O)[O-])c2)n1 -6.66%, CCOC(=O)c1cnc2c(ccc3ccccc32)c1Nc1cccc(C(F)(F)F)c1 -6.73%, Cc1ccc(NC(=O)CCCn2c(=O)c3cccn3c3ccccc32)c(C)c1 -8.56%, Cc1nn(CCCC(=O)NCCc2ccc(Cl)cc2)c(=O)c2c1sc1ccccc12 -20.9%, Cc1ccccc1OCC(=O)Nc1ccccc1C(=O)OCc1cc(=O)n2ccsc2n1 -12.1%, Cc1cc(C(F)F)n2nc(C(=O)Nc3cccc(Cl)c3C)nc2n1 0.539%, N=c1c(C(=O)NCC2CCCO2)cc2c(=O)n3ccccc3nc2n1CCCO (stereo not given) -4.77%, COc1ccc(Cn2c(C(=O)O)c(CNCCc3ccco3)c3ccc(C)cc32)cc1 -11.6%, CCOc1cc(C(=O)NCCc2csc3nc(-c4ccccc4F)nn23)cc(OCC)c1OCC 1.06%, COc1ccc(F)cc1S(=O)(=O)NCC(c1ccco1)S(=O)(=O)c1ccc(F)cc1 (stereo not given) -15.4%, O=C(CN1C(=O)CCn2nc(-c3ccccc3)cc21)NCc1ccc(F)cc1 -10.7%, CCOc1ccc(CNC(=O)C2CCN(S(=O)(=O)c3cn(C)cn3)CC2)cc1 -11%, COc1ccc2c(c1)c1c(c(=O)n(-c3ccccc3)c(=O)n1CC(=O)NCCC1=CCCCC1)n2C -5.68%, Cn1ncc2c(NCc3ccccc3Cl)nc(NCCO)nc21 -14.5%, Cc1c(-c2ccccc2)oc2c(C(=O)OCCN3CCCCC3)cccc2c1=O 8.36%, O=C(Nc1ccc(-n2nncc2-c2ccccc2)cc1)c1cccc(F)c1 -15.8%, Cc1ccccc1N(C)S(=O)(=O)c1nnc(NC(=O)c2ccccc2F)s1 0.527%, COc1ccc(-n2ccnc2SCC(=O)Nc2nnc(C)s2)cc1 -16.1%, COc1cc(CN2CCc3nc(N4CCN(c5ncccn5)CC4)ncc3C2)cc(OC)c1OC -8.28%, Cc1cc(C)cc(NC(=O)Cn2c(=O)n(-c3cc(C)cc(C)c3)c(=O)c3oc4ccccc4c32)c1 -3.2%, Cc1nc2ccccc2n2c(-c3ccccc3)c3c(=O)n(C)c(=O)n(C)c3c12 -10.4%, CCOC(=O)Cn1c(=O)n(C2CCCCC2)c2nc(-c3ccc(CC)cc3)nc(C(N)=O)c21 -3.5%, Cn1nc(C(=O)NCc2cccc(Cl)c2)c2c1-c1ccccc1S(=O)(=O)C2 -12.7%, Cc1c(Cl)cccc1NC(=O)CCS(=O)(=O)c1ccc2c(c1)oc(=O)n2C -11.1%, COc1cccc(CNC(=O)CCn2nc(C)c3c(C)n(-c4ccccc4)nc3c2=O)c1 -11.3%, CN(c1ccccc1)S(=O)(=O)c1nnc(NC(=O)C2CCCCC2)s1 -2.44%, Cc1ccc(NC(=O)C(=O)NCCc2sc(-c3ccc(Cl)cc3)nc2C)cc1C -4.17%, COc1cccc(Cn2c(CNC(=O)CCc3ccccc3)nc3cccnc32)c1 6.31%, Cc1ccc(S(=O)(=O)NCCc2csc(-c3ccc(Cl)cc3)n2)cc1 -14.2%, COc1cccc(C(=O)N(Cc2cccnc2)c2nc3c(OC)ccc(C)c3s2)c1OC -15.5%, COc1ccc(NCc2cc3cc4c(cc3n(CC(=O)Nc3ccc(F)cc3)c2=O)OCCO4)cc1 -6.54%, CCOC(=O)c1c(C)c(C(=O)NCc2ccc(OC)cc2)c(C)n1CC -10.3%, COC(=O)C(C)Sc1nc2c(cnn2-c2ccc(F)cc2)c(=O)[nH]1 (stereo not given) -22.5%, CCOc1cc(C2CC(=O)Nc3cc4c(cc32)OCCO4)ccc1O (stereo not given) -20.9%, COc1ccc2c(c1)-c1nc(NC(=O)c3ccc(C)cc3)sc1CC2 -9.83%, CCOc1ccc(-c2cc(NC(=O)c3ccc(C)cc3)c(C(=O)OC)s2)cc1 -16.6%, Cc1cc(C)cc(-n2c(SCC(=O)NCC3CCCO3)nc3c([nH]c4ccccc43)c2=O)c1 (stereo not given) -21.9%, COc1ccc(-c2noc(-c3ccc(NCCc4ccccc4)c([N+](=O)[O-])c3)n2)cc1OC -11.7%, CCCC(=O)C1=C(c2ccc(C)c(C)c2)N(C(=O)CCC)n2c(CC)nnc2S1 -6.48%, Cn1cnc2c1c(=O)[nH]c(=O)n2C -0.667%, O=C(Cn1ncc2c3ccccc3n(Cc3ccccc3)c2c1=O)Nc1ccccc1C(F)(F)F -0.104%, COc1ccc(OC)c(CNC(=O)CCCn2nc(C)c3c(C)n(-c4ccc(C)cc4)nc3c2=O)c1 -0.42%, CC(C)c1ccc(NS(=O)(=O)c2ccc3[nH]cc(C(=O)N4CCCC4)c(=O)c3c2)cc1 3.81%, CCn1ccc2cc(S(=O)(=O)N3CCCN(C(=O)Nc4cc(Cl)ccc4C)CC3)ccc21 -26.9%, CCOc1ccc(NC(=O)Nc2ccc3snnc3c2)cc1 -37.3%, COc1cccc(CNC(=O)Cc2c(C)c3c(cc(C)c4c(C)coc43)oc2=O)c1 -1.25%
